Among the data in the supplement of paper PMC4967469 are AUC and IC50 values, retold here.

IC50 is the fitted dose that halves viability relative to control wells, and lower means more sensitive; fits outside the tested doses are given as limits. For AUC the same curve is integrated over the 256-fold range of doses and scaled to a fraction: 1 means no effect, lower means more sensitive. A top dose marked as inferred was derived from the fitted curves, not read from the paper.

Compound in the assay: Cc1ccc(-c2c(C(=O)CF)n(CCCO)c3ncnc(N)c23)cc1 [FMK]
The assay is described as follows: Viability of human cancer cell lines after 72 h of drug (GDSC screen). As to conditions: top dose inferred. As to the method:
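Human cancer cell lines in 384-well plates, medium with 10% serum, drug for 72 h over a 256-fold dose range (nine 2-fold or five 4-fold steps up to the top dose). Adherent lines were fixed and stained with the nucleic acid dye Syto60, suspension lines read with resazurin; signal relative to control wells, capped at 0 and 100%. One two-parameter sigmoid per drug and line, fitted in a mixed model over all curves with the slope shared within a line.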
Take “NCI-H838 (lung adenocarcinoma, adherent, top dose 20 µM)”: the AUC stood at 0.987 and the IC50 – broadly, the concentration at which inhibition is half-maximal – is over 20 µM.

In the case of “NCI-H841 (small cell lung carcinoma, adherent, top dose 20 µM)”, the AUC came to 0.984 and the IC50 is over 20 µM.

“NCI-H847 (small cell lung carcinoma, adherent, top dose 20 µM)”: the AUC came to 0.991 and the IC50 is over 20 µM.

Consider “NCI-H1048 (small cell lung carcinoma, adherent, top dose 20 µM)”, for which the AUC stood at 0.99 and the IC50 was over 20 µM.

For the cell line “NCI-H1155 (large cell lung carcinoma, suspension, top dose 20 µM)”, the AUC amounted to 0.992 and the IC50 is over 20 µM.

“NCI-H1299 (large cell lung carcinoma, adherent, top dose 20 µM)”: the AUC stood at 0.959 and the IC50 was over 20 µM.

“NCI-H1304 (small cell lung carcinoma, suspension, top dose 20 µM)”: the AUC amounted to 0.988 and the IC50 is over 20 µM.

Regarding “NCI-H1355 (lung adenocarcinoma, adherent, top dose 20 µM)”, the AUC was 0.978 and the IC50 was over 20 µM.

As to “NCI-H1395 (lung adenocarcinoma, adherent, top dose 20 µM)”, the AUC is 0.97 and the IC50 was over 20 µM.

For the cell line “NCI-H1417 (small cell lung carcinoma, suspension, top dose 20 µM)”, the AUC was determined as 0.979 and the IC50 was over 20 µM.

For the cell line “NCI-H1435 (lung adenocarcinoma, semi-adherent, top dose 20 µM)”, the AUC is 0.988 and the IC50 was over 20 µM.

For the cell line “NCI-H1436 (small cell lung carcinoma, suspension, top dose 20 µM)”, the AUC amounted to 0.959 and the IC50 is over 20 µM.

For the cell line “NCI-H1437 (lung adenocarcinoma, adherent, top dose 20 µM)”, the AUC came out at 0.974 and the IC50 was over 20 µM.

With “NCI-H1563 (lung adenocarcinoma, adherent, top dose 20 µM)”, the AUC was found to be 0.964 and the IC50 was over 20 µM.

Turning to “NCI-H1568 (lung adenocarcinoma, adherent, top dose 20 µM)”, the AUC was 0.963 and the IC50 is over 20 µM.

In the case of “NCI-H1573 (lung adenocarcinoma, adherent, top dose 20 µM)”, the AUC was determined as 0.988 and the IC50 was over 20 µM.

“NCI-H1581 (large cell lung carcinoma, semi-adherent, top dose 20 µM)”: the AUC was determined as 0.988 and the IC50 was over 20 µM.

For the cell line “NCI-H1623 (lung adenocarcinoma, adherent, top dose 20 µM)”, the AUC stood at 0.985 and the concentration for half-maximal inhibition (IC50) was over 20 µM.

Turning to “NCI-H1648 (lung adenocarcinoma, adherent, top dose 20 µM)”, the AUC turned out to be 0.977 and the IC50 is over 20 µM.

Regarding “NCI-H1651 (lung adenocarcinoma, adherent, top dose 20 µM)”, the AUC came out at 0.987 and the IC50 is over 20 µM.

With “NCI-H1666 (lung adenocarcinoma, semi-adherent, top dose 20 µM)”, the AUC was 0.979 and the IC50 is over 20 µM.

Consider “NCI-H1688 (small cell lung carcinoma, adherent, top dose 20 µM)”, for which the AUC turned out to be 0.987 and the IC50 was over 20 µM.

In the case of “NCI-H1693 (lung adenocarcinoma, adherent, top dose 20 µM)”, the AUC worked out at 0.962 and the IC50 is over 20 µM.

Consider “NCI-H1694 (small cell lung carcinoma, suspension, top dose 20 µM)”, for which the AUC came out at 0.953 and the IC50 is over 20 µM.

On to “NCI-H1703 (lung adenocarcinoma, adherent, top dose 20 µM)”, for which the AUC stood at 0.972 and the IC50 was over 20 µM.

On to “NCI-H1734 (lung adenocarcinoma, adherent, top dose 20 µM)”, for which the AUC came out at 0.964 and the IC50 was over 20 µM.

As to “NCI-H1755 (lung adenocarcinoma, adherent, top dose 20 µM)”, the AUC is 0.957 and the IC50 is over 20 µM.

In the case of “NCI-H1770 (non-small cell lung carcinoma, suspension, top dose 20 µM)”, the AUC is 0.992 and the IC50 is over 20 µM.

Take “NCI-H1781 (lung adenocarcinoma, adherent, top dose 20 µM)”: the AUC stood at 0.963 and the IC50 was over 20 µM.

“NCI-H1792 (lung adenocarcinoma, adherent, top dose 20 µM)”: the AUC is 0.925 and the IC50 was over 20 µM.

For “NCI-H1793 (lung adenocarcinoma, adherent, top dose 20 µM)”, the AUC was 0.982 and the IC50 was over 20 µM.

Turning to “NCI-H1836 (small cell lung carcinoma, suspension, top dose 20 µM)”, the AUC stood at 0.945 and the IC50 was over 20 µM.

As to “NCI-H1838 (lung adenocarcinoma, adherent, top dose 20 µM)”, the AUC is 0.965 and the IC50 was over 20 µM.

“NCI-H1869 (lung squamous cell carcinoma, adherent, top dose 20 µM)”: the AUC is 0.967 and the IC50 is over 20 µM.

Consider “NCI-H1876 (small cell lung carcinoma, adherent, top dose 20 µM)”, for which the AUC stood at 0.98 and the IC50 is over 20 µM.

With “NCI-H1915 (large cell lung carcinoma, adherent, top dose 20 µM)”, the AUC was 0.964 and the IC50 was over 20 µM.

With “NCI-H1944 (lung adenocarcinoma, adherent, top dose 20 µM)”, the AUC came to 0.925 and the IC50 is over 20 µM.

Turning to “NCI-H1975 (lung adenocarcinoma, adherent, top dose 20 µM)”, the AUC worked out at 0.95 and the IC50 is over 20 µM.

Consider “NCI-H1993 (lung adenocarcinoma, adherent, top dose 20 µM)”, for which the AUC was 0.977 and the IC50 is over 20 µM.

Consider “NCI-H2009 (lung adenocarcinoma, adherent, top dose 20 µM)”, for which the AUC stood at 0.987 and the IC50 was over 20 µM.

Consider “NCI-H2023 (lung adenocarcinoma, adherent, top dose 20 µM)”, for which the AUC came out at 0.969 and the IC50 was over 20 µM.

For the cell line “NCI-H2029 (small cell lung carcinoma, adherent, top dose 20 µM)”, the AUC was 0.992 and the IC50 is over 20 µM.

Consider “NCI-H2030 (lung adenocarcinoma, adherent, top dose 20 µM)”, for which the AUC is 0.955 and the IC50 is over 20 µM.

For “NCI-H2081 (small cell lung carcinoma, suspension, top dose 20 µM)”, the AUC was found to be 0.977 and the IC50 was over 20 µM.

On to “NCI-H2085 (lung adenocarcinoma, adherent, top dose 20 µM)”, for which the AUC stood at 0.979 and the IC50 is over 20 µM.

As to “NCI-H2087 (lung adenocarcinoma, semi-adherent, top dose 20 µM)”, the AUC was found to be 0.651 and the IC50 amounted to 3.39 µM.

Turning to “NCI-H2110 (non-small cell lung carcinoma, adherent, top dose 20 µM)”, the AUC was determined as 0.979 and the IC50 is over 20 µM.

With “NCI-H2122 (lung adenocarcinoma, adherent, top dose 20 µM)”, the AUC is 0.981 and the IC50 is over 20 µM.

With “NCI-H2141 (small cell lung carcinoma, suspension, top dose 20 µM)”, the AUC was 0.988 and the IC50 is over 20 µM.

Take “NCI-H2170 (lung squamous cell carcinoma, adherent, top dose 20 µM)”: the AUC is 0.987 and the IC50 was over 20 µM.

“NCI-H2171 (small cell lung carcinoma, suspension, top dose 20 µM)”: the AUC was 0.973 and the IC50 is over 20 µM.

Regarding “NCI-H2172 (non-small cell lung carcinoma, adherent, top dose 20 µM)”, the AUC turned out to be 0.978 and the IC50 was over 20 µM.

Regarding “NCI-H2196 (small cell lung carcinoma, adherent, top dose 20 µM)”, the AUC is 0.987 and the IC50 was over 20 µM.

In the case of “NCI-H2228 (lung adenocarcinoma, adherent, top dose 20 µM)”, the AUC was 0.96 and the IC50 is over 20 µM.

On to “NCI-H2291 (lung adenocarcinoma, adherent, top dose 20 µM)”, for which the AUC was found to be 0.977 and the IC50 is over 20 µM.

For “NCI-H2342 (lung adenocarcinoma, adherent, top dose 20 µM)”, the AUC worked out at 0.978 and the 50% inhibitory concentration (IC50) was over 20 µM.

“NCI-H2347 (lung adenocarcinoma, adherent, top dose 20 µM)”: the AUC is 0.966 and the IC50 was over 20 µM.

Regarding “NCI-H2405 (lung adenocarcinoma, adherent, top dose 20 µM)”, the AUC was 0.974 and the IC50 was over 20 µM.

As for “NCI-H2444 (non-small cell lung carcinoma, adherent, top dose 20 µM)”, the AUC is 0.984 and the IC50 is over 20 µM.

With “NCI-H2452 (mesothelioma, adherent, top dose 20 µM)”, the AUC amounted to 0.978 and the IC50 is over 20 µM.
